Measurements taken from PubChem BioAssay AID1159614 (National Center for Advancing Translational Sciences (NCATS), 2016).
Among all 45,000 compounds or so, about 65 (0.1%) were called active. Calls come from the whole dose curve; as a rule, active = well fitted activation curve with a large enough effect; inconclusive = small, poorly fitted or top-dose-only effect; inactive = no such curve, though single readings can be large or run the other way. The list shows a part of the results.

Molecular target: Galactocerebrosidase (Homo sapiens) (UniProt P54803)
Assay: A Novel Cell-Based Assay to Identify Small Molecules for B -Galactocerebrosidase; note: 0% is about no effect; nearly all actives have a fitted effect of over 65% in size
Settings: 145M-Twi-hGALC-G270D cells (Twitcher mouse brain line with human GALC G270D), HMU-beta-Gal fluorescence, 48 h; series mostly up to 57.5 µM; activation: at the top concentration
How it was run: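 Fluorescence readout: HMU-β-gal cleavage by mutant GALC (0.1 mM final, citrate/phosphate pH 5.2 with 1 mg/mL taurocholate), stopped with carbonate/bicarbonate plus Triton X-100. Cells: murine Twitcher 145M-Twi expressing human G270D GALC; qHTS for activators.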

Chain of UniProt P54803 (P54803 whole entry, looked up): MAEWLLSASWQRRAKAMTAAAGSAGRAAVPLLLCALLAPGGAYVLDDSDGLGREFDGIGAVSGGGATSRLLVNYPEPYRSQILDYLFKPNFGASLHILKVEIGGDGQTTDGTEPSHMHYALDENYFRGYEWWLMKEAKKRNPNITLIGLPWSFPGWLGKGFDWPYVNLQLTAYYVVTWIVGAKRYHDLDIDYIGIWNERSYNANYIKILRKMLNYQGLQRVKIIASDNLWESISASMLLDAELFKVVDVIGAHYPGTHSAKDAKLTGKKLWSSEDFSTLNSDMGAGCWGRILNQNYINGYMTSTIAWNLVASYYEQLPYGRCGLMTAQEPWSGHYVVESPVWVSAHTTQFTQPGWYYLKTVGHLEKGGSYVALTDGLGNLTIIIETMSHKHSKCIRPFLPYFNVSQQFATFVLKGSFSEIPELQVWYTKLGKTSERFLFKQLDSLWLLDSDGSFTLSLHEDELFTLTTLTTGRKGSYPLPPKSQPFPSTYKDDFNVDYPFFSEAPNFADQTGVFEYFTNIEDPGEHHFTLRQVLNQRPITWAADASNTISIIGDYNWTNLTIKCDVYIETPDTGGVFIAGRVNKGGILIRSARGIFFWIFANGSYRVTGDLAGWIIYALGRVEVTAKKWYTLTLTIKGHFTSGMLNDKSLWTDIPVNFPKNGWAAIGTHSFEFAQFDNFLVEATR

activation, inactive:
COc1ccc(Nc2c(-c3ccc(N4CCOCC4)cc3)nc3ncccn23)cc1OC -10.8%
CCOc1cc(CN2CCN(S(=O)(=O)c3ccc(C)cc3)CC2)ccc1OC -21.2%
COc1ccc(/C=C/C(=O)Nc2sc(C)c(C)c2C(=O)O)cc1 -4.64%
Cc1ccc(NC(=O)C(C)Sc2nc(-c3ccccc3)c(C#N)c(=O)[nH]2)c(C)c1 (centres undefined) -17.4%
O=C(Nc1nnc(S(=O)(=O)N2CCOCC2)s1)c1ccccc1F -11.6%
CC(C)Cc1nn2c(=O)cc(COC(=O)c3ccc(NC(=O)CCc4ccccc4)cc3)nc2s1 -8.56%
O=c1c(N2CCc3ccccc3C2)csc2ccc(Cl)cc12 -12.3%
CCc1ccc2c(c1)NC(c1ccc(C)cc1)=NC(c1cccs1)=N2 -4.53%
CCOC(=O)N1CCc2c(sc3c2c(=O)n(Cc2ccccc2)c(=O)n3CC(=O)Nc2ccc(C)cc2C)C1 -6.03%
CCn1c(=O)sc2cc(NS(=O)(=O)c3ccc(C)cc3)ccc21 -12.7%
CCOc1cccc(C(=O)N2CCC(c3nc4ccccc4s3)CC2)c1 -19.3%
COc1ccc(-c2noc(N(c3cccc(Cl)c3)c3nc(-c4ccc(OC)c(OC)c4)no3)n2)cc1OC -2.18%
CCN1CC(CCN2CCOCC2)C(c2ccccc2)(c2ccccc2)C1=O (centres undefined) -19.3%
Cn1nc(-c2ccccc2F)c2cc(C(=O)NCCc3ccc(Cl)cc3)sc21 -9.46%
COCCCNC(=O)c1cnc2c(-c3ccc(F)cc3)c(C)nn2c1C 6.82%
CCOC(=O)C1CCN(C(c2cccc(F)c2)c2c(O)cc(C)n(Cc3ccco3)c2=O)CC1 (centres undefined) -21.1%
Brc1cccc(-c2nnc(CN3CCN(c4ccccn4)CC3)o2)c1 -8.16%
Cc1ccc(S(=O)(=O)Cc2ccc(C(=O)NCCc3ccc(Cl)cc3)o2)cc1 -13.3%
CC(=O)c1ccc(NC(=O)CSc2ccc(-c3cccs3)nn2)cc1 -16.7%
CCOc1ccc(-c2nc(SCC(=O)c3ccccc3)n[nH]2)cc1 -8.66%
CN(C)c1ccc(CNC(=O)c2cnc3sc(N4CCOCC4)nn3c2=O)cc1 -1.06%
O=C(NC1CCCCC1)c1ccc(CSc2nc3cccnc3n2Cc2ccc(F)cc2)cc1 -1.22%
CCOC(=O)c1ccc(NC(=O)CCC(=O)N2Cc3ccccc3Oc3ncccc32)cc1 -11.8%
COc1ccc(OC)c(NC(=O)C2CCN(S(=O)(=O)c3ccc4c(c3)CCCC(=O)N4)CC2)c1 10.7%
O=C(c1cc(O)c(O)c(O)c1)c1ccc(O)c(O)c1O -17%
CCOC(=O)c1c(S(=O)(=O)N2CCCC(C(=O)Nc3cc(C)ccn3)C2)c(C)n(C)c1C (centres undefined) -21.5%
COC(=O)C1=C(C)NC(=O)C1(NC(=O)c1cc(OC)c(OC)c(OC)c1)C(F)(F)F (centres undefined) 1.15%
Cc1cc(C)nc(NC(=NCCc2c[nH]c3ccc(Cl)cc23)NC(=O)c2ccccc2C)n1 -3.85%
Cc1cccc(-n2cc(-c3ccccc3)c3c(NC4CCCC4)ncnc32)c1 2.52%
C=Cc1ccc(Cn2nc(-c3ccc(C)cc3)ccc2=O)cc1 -28.8%
CCOC(=O)c1c(NC(=O)c2ccc(S(=O)(=O)N3CCC(C)CC3)cc2)sc2c1CCN(CC)C2 -14.8%
Cc1cccc(Nc2nnc(-c3ccc(C)c(S(=O)(=O)NCC4CCCO4)c3)c3ccccc23)c1 (centres undefined) -14.9%
CCOC(=O)c1ccc(N2C(=O)c3n[nH]c(-c4ccco4)c3C2c2ccc(O)c(OCC)c2)cc1 (centres undefined) -27.9%
COCCNc1ccc(-c2nc(-c3ccco3)no2)cc1[N+](=O)[O-] -16.8%
O=C(CN1C(=O)COc2ccc(S(=O)(=O)N3CCCC3)cc21)N1CCN(c2ccc(F)cc2)CC1 -7.07%
O=C1CC(c2nnc(Cc3ccc(F)cc3Cl)o2)CN1c1ccccc1 (centres undefined) -2.26%
O=C1c2[nH]nc(-c3ccccc3O)c2C(c2ccccc2F)N1Cc1cccnc1 (centres undefined) -32.2%
Cc1cccc(-n2c(Cc3ccccc3)nnc2SCc2nc(-c3cccs3)no2)c1 -13.1%
COC(=O)c1ccc(NC(=O)CN2C(=O)CCc3cc(S(=O)(=O)N4CCCCC4)ccc32)cc1 -9.82%
N#Cc1ccccc1Cn1c(=O)n(-c2cccc(C(F)(F)F)c2)c(=O)c2sccc21 -4.53%
CCOC(=O)c1cc(-c2ccccc2)n(CCCC(=O)Nc2cccc(C)c2C)c1C -8.02%
COc1ccc(S(=O)(=O)NCC(c2ccco2)N2CCN(c3ccccc3)CC2)cc1OC (centres undefined) 10.7%
O=C(O)CCn1c(=O)c2cccn2c2cccnc21 -9.57%
Cc1[nH]c(=O)[nH]c(=O)c1S(=O)(=O)N1CCN(c2ccccc2Cl)CC1 -2.95%
COc1ccccc1NC(=O)c1sc2nc(C)c(C(=O)Nc3ccc(C)cc3C)c(-c3cccs3)c2c1N -14.4%
COc1cc2[nH]c(=O)n(CCCC(=O)NCc3ccc(Cl)cc3)c(=O)c2cc1OC -19.4%
Cc1ccc(NC(=O)C(=O)NCC(c2cccnc2)N2CCN(c3ccccc3F)CC2)cc1Cl (centres undefined) -16%
CCc1ccccc1Nc1nn2c(=O)c3ccc(C(=O)NC(C)c4ccccc4)cc3nc2s1 (centres undefined) 1.5%
CC(=O)Nc1ccc(NC(=O)c2cc3sccc3n2Cc2ccc(F)cc2)cc1 -14.9%
CC(C)(C)C1CCc2c(sc3nc(-c4cc5cc(Br)ccc5oc4=O)[nH]c(=O)c23)C1 (centres undefined) -8.21%
CCOC(=O)c1c(C)[nH]c(CCC(=O)NCc2ccc(F)cc2)c1C -5.02%
CCOc1cc2[nH]c(=O)n(CCCCC(=O)N3CCN(c4cccc(Cl)c4)CC3)c(=O)c2cc1OCC -3.88%
Cc1cccc2sc(N(Cc3cccnc3)C(=O)c3cccs3)nc12 -8.66%
CCc1ccc(CN2CCc3nc(Nc4ccccc4)ncc3C2)cc1 -6.04%
CCOc1ccccc1NC(=O)N1CCC(n2c(C)nc3cccnc32)CC1 -11.8%
COc1ccc(-n2nc3c(N4CCCC(C(=O)NCc5ccc(C)cc5)C4)nnc(C)c3c2C)cc1 (centres undefined) -6.68%
Cc1sc2ncn(CC(=O)Nc3ccc(F)cc3F)c(=O)c2c1S(=O)(=O)N1CCC(C)CC1 -30.8%
COc1ccc(NC(=O)c2cc3nc(-c4ccc(Cl)c(Cl)c4)cc(C(F)(F)F)n3n2)c(OC)c1 -15.1%
COc1cccc(N2CCN(S(=O)(=O)c3cn(C)c(C)n3)CC2)c1 -19.6%
Cc1c(-c2nnc(SCC(=O)Nc3ccccc3F)o2)nnn1-c1ccc(F)cc1 -24.1%
COc1ccc(C(=O)NC2CC(=O)N(c3ccc4c(c3)OCCO4)C2)cc1 (centres undefined) -10.9%
COc1ccc(CNC(=O)CCc2cn(C)c3ccccc23)cc1 3.55%
CC(=O)N1CCc2cc(S(=O)(=O)NC(CC(C)C)C(=O)Nc3ccc(C(C)C)cc3)ccc21 (centres undefined) -3.11%
CC(C)Cn1cc(NC(=O)Nc2cccc(C(F)(F)F)c2)c2ccccc2c1=O -24.9%
CCn1c(C(=O)N2CCC(C(=O)N3CCN(c4cc(C)ccc4C)CC3)CC2)cc2sccc21 -13.5%
COc1ccc(CNC(=O)c2ccc3nc(CCc4ccccc4)oc3c2)cc1OC -12.3%
CCOc1ccc(CNC(=O)c2cccc(NC(=O)N3CCSc4ncccc43)c2)cc1 -16.4%
CC(C)CC(=O)Nc1nc2c(s1)CC(C(C)(C)C)CC2 (centres undefined) -35.4%
CCOC(=O)c1c(C)sc(-c2c(-c3ccc4c(c3)OCCO4)[nH]c3c2c(=O)n(C)c(=O)n3C)c1O -19.9%
Cc1cc(-c2ccc(C)c(S(=O)(=O)N3CCC(C)CC3)c2)on1 -6.45%
CC(=O)N1c2ccc(S(=O)(=O)N3CCCCCC3)cc2CC1C(=O)NC(C)C (centres undefined) -10.3%
CCOC(=O)N1CCc2c(sc3c2c(=O)n(Cc2ccccc2)c(=O)n3Cc2cc(C)ccc2C)C1 5.73%
COc1ccc(CC(=O)NC2CC(=O)N(c3cccc(F)c3)C2)cc1OC (centres undefined) 1.48%
CCc1nn(CCCC(=O)N2CCN(c3cc(Cl)ccc3C)CC2)c(=O)c2cc3occc3n12 -8.53%
COc1ccccc1Nc1sc(C(=O)c2ccc3c(c2)OCO3)c(N)c1S(=O)(=O)c1ccccc1 -4.17%
Cc1ccc(C2=Nc3ccccc3N(CC(=O)Nc3ccccc3F)C(=O)C2)cc1C -19.2%
CCOC(=O)c1c(C)n(S(=O)(=O)c2ccc(C)cc2C)c2ccc(NS(=O)(=O)c3ccc(C)cc3C)cc12 -2.18%
O=C(Nc1cccc(Cl)c1)c1ccc2nc(CCc3ccccc3)oc2c1 -9.93%
CCCn1c2ccccc2c2cnn(CC(=O)NCc3ccccc3Cl)c(=O)c21 -4.8%
O=c1oc2ccccc2cc1-c1nnc(Nc2ccc(Cl)cc2Cl)s1 -11.6%
CCN(CC)CCCNC(=O)Cc1ccc(NC(=O)N2CCCCc3ccccc32)cc1 3.54%
CCC1Oc2ccc(C)cc2N(CC(=O)NCc2ccc(OC)cc2)C1=O (centres undefined) -9.93%
CCCCN1C(=O)c2[nH]nc(-c3ccccc3O)c2C1c1ccc(C(C)(C)C)cc1 (centres undefined) -9.11%
COc1ccc2nc(NC(=O)Nc3ccccc3)sc2c1 -20%
COc1cc(OC)c(NC(=O)C2CCN(C(=O)c3sc4nc[nH]c(=O)c4c3C)CC2)cc1Cl 11.4%
CC(C)Oc1ccc(CNC(=O)C2CCN(c3nc4ccccc4nc3C(F)(F)F)CC2)cc1 -15.8%
CCC(=O)N1CCc2cc(Br)cc(S(=O)(=O)N3CCC(C(=O)Nc4ccccc4CC)CC3)c21 -7.28%
COc1cccc(C2CC(=O)Nc3cc4c(cc32)OCO4)c1OC(C)C (centres undefined) -4.84%
Cc1nc(-c2ccccc2)sc1-c1ccc(SCC(=O)Nc2cccc(C(F)(F)F)c2)nn1 -11.2%
Cc1ccc(-c2nc3cc(Cl)ccc3o2)cc1NC(=O)c1cc([N+](=O)[O-])ccc1N1CCOCC1 -6.85%
CC(=O)NC1CC(=O)N(c2ccc3c(c2)OCCO3)C1 (centres undefined) -8.84%
Cc1oc(C)c2c(=O)cc(-c3ccc4c(c3)OCO4)cc(OC(=O)c3ccccc3Br)c12 -12.2%
COc1ccc(NC(=O)C2CCN(S(=O)(=O)c3ccc4c(c3)CCCC(=O)N4)CC2)cc1Cl -4.08%
CCNC(=O)Cn1c(-c2cccs2)cc2ccccc21 -8.78%
